Whole data set: some 33,000 sequences, median “E-score (-0.5 to 0.5)” near -0.012, cut for the highest 2% near 0.27. The list shows a part of the results.

This note sets out measurements from the supplement of paper PMC3334620.

The target in the assay is T1, Vhr1 (UniProt P40522).
T1 sequence: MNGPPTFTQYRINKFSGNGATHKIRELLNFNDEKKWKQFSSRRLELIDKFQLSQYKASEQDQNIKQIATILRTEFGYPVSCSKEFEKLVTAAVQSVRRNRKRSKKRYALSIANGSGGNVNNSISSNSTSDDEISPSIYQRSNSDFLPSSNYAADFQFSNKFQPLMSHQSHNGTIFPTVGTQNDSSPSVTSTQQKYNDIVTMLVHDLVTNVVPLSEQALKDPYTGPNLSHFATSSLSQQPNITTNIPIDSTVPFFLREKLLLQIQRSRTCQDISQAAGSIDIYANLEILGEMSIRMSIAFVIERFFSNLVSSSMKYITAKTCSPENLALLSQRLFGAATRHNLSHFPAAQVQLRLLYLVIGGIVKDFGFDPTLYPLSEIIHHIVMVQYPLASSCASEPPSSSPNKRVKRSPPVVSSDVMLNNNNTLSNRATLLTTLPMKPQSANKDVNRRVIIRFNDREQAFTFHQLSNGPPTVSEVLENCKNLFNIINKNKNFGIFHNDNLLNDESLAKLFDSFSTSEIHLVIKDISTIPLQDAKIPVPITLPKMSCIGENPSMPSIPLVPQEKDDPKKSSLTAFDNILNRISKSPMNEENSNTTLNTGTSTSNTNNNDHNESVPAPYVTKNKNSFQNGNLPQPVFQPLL
The assay can be described thus: PBM E-score (8-mer binding enrichment) (E-score (-0.5 to 0.5)); higher = stronger / more preferred TF binding; most listed sequences are background and not binding sites. The note with it: protein concentration: 200 nM; construct: GST-full length. A digest of the protocol:
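Detection of bound protein used fluorescent anti-GST, with scans normalised by masliner. The proteins were GST-tagged yeast transcription factors applied at about 100-200 nM to universal all-10-mer Agilent arrays made double-stranded by primer extension. Each ungapped eight-base word, pooled with its reverse complement, was scored with an E-score from the Universal PBM Analysis Suite.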
As to ACCCAAAT, the “PBM E-score” value amounted to 0.013.
The figure for GATAGGGA is -0.147; for GAAATCAC it is 0.205; for AAAATTCT it is -0.252.
The figure for CTGTTCCC is -0.103; for CGGGGATC it is -0.0678.
Consider AGTCGCCG, for which the “PBM E-score” value is 0.246.
As to AAGTTGTC, the “PBM E-score” value came to 0.0491.
With CAGCTCGA the figure was 0.0856.
With AGAAACGG the figure was -0.0496.
The figure for GCTGATTA is 0.197; for GACGCGTA it is 0.00616.
Consider GGTAACAA, for which the “PBM E-score” value was -0.00432.
The figure for CATACTAC is 0.229; for AGTACACG it is 0.0779.
The figure for TACGCCCA is -0.0321; for CGGTATAG it is -0.0544.
For CATCCTTC, the “PBM E-score” value is -0.0237.
For the sequence CTTAATGC, the “PBM E-score” value is -0.143.
As for AAACAATT, the “PBM E-score” value was -0.011.
On to AAACGGTG, for which the “PBM E-score” value was -0.11.
Take CTAATTAA: the “PBM E-score” value is -0.259.
The figure for AACAATAT is 0.246; for CACCGGAG it is 0.0088; for AGGGGAGC it is -0.0736.
The figure for ACAAACCC is -0.137.
With GGACGGCC the figure was 0.0174; with AAGTCTAA, -0.251; with CAATTTAG, 0.0502.
In the case of CGGGTCGC, the “PBM E-score” value is 0.115.
With TAGGTAAA the figure was -0.237; with TGTAGAAA, -0.14; with TCTCATAA, -0.00956.
On to ATGCTCAC, for which the “PBM E-score” value was 0.0744.
The figure for CCTTCGCC is -0.031; for ATTCGCGG it is 0.042.
For ACATCTCC, the “PBM E-score” value was found to be 0.106.
The figure for AACCTGGA is 0.0728; for CCCCTCAG it is -0.018; for CATACAAC it is 0.14.
With CCGGATTC the figure was 0.0253; with CTCCTACA, 0.071.
For the sequence AACCACTT, the “PBM E-score” value stood at 0.111.
With AGCTTCCC the figure was -0.131; with TGCTACAA, -0.036.
The figure for AATCTTCA is 0.0143; for CGACCCAC it is 0.194; for AGGAAGCC it is -0.0261.
With AAGCATTG the figure was -0.0635; with GAACGGAC, -0.134.
Take AGGAGATC: the “PBM E-score” value is 0.0381.
Turning to AGCCTTAA, the “PBM E-score” value is -0.246.
The figure for AAGGGTAC is -0.267; for AACAAGTG it is -0.155.
As for GTGGAGCA, the “PBM E-score” value is -0.0267.
With AAGTATTG the figure was 0.0622.
The figure for GGAGCCGA is 0.0464; for CCCAGTTC it is -0.0222.
For the sequence TGTCCACA, the “PBM E-score” value is -0.0343.
As for TATTTGCA, the “PBM E-score” value was -0.0247.
Consider ACACTGAT, for which the “PBM E-score” value was -0.107.
With GTGTTTGA the figure was 0.0645; with GCTCCGAA, -0.0864.
The figure for AGTATTCC is 0.0833; for CAGCACTA it is 0.0511; for CTATTCGA it is -0.217.
With CTTGCCGC the figure was -0.147; with CAAAGTCA, 0.103.
As for AGATGCAC, the “PBM E-score” value was found to be 0.00583.
The figure for GAATTCAA is 0.00057; for CCGAGGTA it is -0.00187; for GGCATCCA it is -0.218.
The figure for GGTTAGCA is -0.0628; for AAAAATGC it is -0.153.
For GAAGCTTC, the “PBM E-score” value was -0.222.
With CGTTACAC the figure was 0.072; with ATTACACC, 0.0693.
Take CTACGCAC: the “PBM E-score” value amounted to 0.0486.
For the sequence GGTGTCCA, the “PBM E-score” value is -0.0191.
With ACTGAAAG the figure was -0.116; with CCCTTGGA, 0.0276.
Consider CCAGCGTA, for which the “PBM E-score” value is -0.0105.
With GCGTTTCA the figure was -0.0863; with GAGTAGTA, 0.0825.
Turning to CCAGTACC, the “PBM E-score” value is 0.0753.
In the case of CCTACCCG, the “PBM E-score” value was 0.0701.
